# PubChem BioAssay (NCATS)
# Inconclusive results, whose numbers are uncertain, are shown with a selection of clear calls. Potencies of inconclusive entries are left out as doubtful fits. Activity calls are given as the source filed them. Calls follow the shape of the dose curve; as a rule, active = well fitted curve in the direction sought with a large enough effect; inconclusive = small, poorly fitted or top-dose-only effect, or another doubt; inactive = no such curve, though single readings can be large; an effect the other way counts as inactive or inconclusive. *1 amine or outer side, *2 acyl side, *3 side chain or, on linkers, in order; H or OH if unused. Where a SMILES comes first, the peptide text is derived from it. Bridges are numbered along the chain shown (N, C = ends). Roman numbers before positions name the chains, in order. [ ]: non-standard residue; d: D form. Actinocin(9to1) = Cc1c2oc3c(C)ccc(C(=O)[*:1])c3nc-2c(C(=O)[*:2])c(N)c1=O; NMeV = CN[C@H](C(=O)O)C(C)C; Sar = CNCC(=O)O
# Tests used:
# [1] = qHTS of pediatric cancer cell lines to identify multiple opportunities for drug repurposing: Primary screen for NB1643 cells (AID 1347099); also: nearly all actives have a fitted effect of over 50% in size
# Outline: (§1)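 Plated cells (500-1,000 per well, growth media) were allowed to settle for 5 hours, treated with compound dilutions for 48 hours, then lysed with CellTiter-Glo for 15 min at room temperature before luminescence reading.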
# [2] = qHTS of pediatric cancer cell lines to identify multiple opportunities for drug repurposing: Primary screen for BT-12 cells (AID 1347101); also: nearly all actives have a fitted effect of over 25% in size
# Outline: (§2)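 Cells (500-1,000/well) rested 5 h, then received compounds for 48 h; metabolically active cells were measured by CellTiter-Glo luminescence. Final concentrations spanned up to 46 µM (MIPE, 11-point) or 0.59 nM-46 µM (NPC, 8-point) in primary screens, 11-point in follow-ups.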
# [3] = qHTS of pediatric cancer cell lines to identify multiple opportunities for drug repurposing: Primary screen for Rh18 cells (AID 1347102); conditions: Rh18 rhabdomyosarcoma viability, CellTiter-Glo luminescence, 48 h; activity change, negative = cytotoxic: at 46 µM (top of the series); also: nearly all actives have a fitted effect of over 65% in size
# Outline: (§3)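 Cells (500-1,000/well) in growth media were settled 5 h at 37 degrees C, then given compounds for 48 h. Viability was read as CellTiter-Glo luminescence. Primary runs used MIPE at 11 points (0.78 nM-46 µM) and NPC at 8 points (0.59 nM-46 µM); follow-ups used 11 points.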
# [4] = qHTS of pediatric cancer cell lines to identify multiple opportunities for drug repurposing: Primary screen for MG 63 (6-TG R) cells (AID 1347105); conditions: MG 63 (6-TG R) viability, CellTiter-Glo, 48 h; activity change, negative = cytotoxic: at 46 µM (top of the series); also: nearly all actives have a fitted effect of over 50% in size
# Outline: as §1
# [5] = qHTS of pediatric cancer cell lines to identify multiple opportunities for drug repurposing: Primary screen for LAN-5 cells (AID 1347100); conditions: LAN-5 neuroblastoma viability, CellTiter-Glo luminescence, 48 h; activity change, negative = cytotoxic: at 46 µM (top of the series)
# Outline: as §3
# [6] = qHTS of pediatric cancer cell lines to identify multiple opportunities for drug repurposing: Primary screen for OHS-50 cells (AID 1347103); also: nearly all actives have a fitted effect of over 40% in size
# Outline: as §2
# [7] = qHTS of pediatric cancer cell lines to identify multiple opportunities for drug repurposing: Primary screen for RD cells (AID 1347104); also: nearly all actives have a fitted effect of over 55% in size
# Outline: as §1
# [8] = qHTS of pediatric cancer cell lines to identify multiple opportunities for drug repurposing: Primary screen for control Hh wild type fibroblast cells (AID 1347106); also: nearly all actives have a fitted effect of over 55% in size;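 as to activity change, negative = cytotoxic: a drop in luminescence marks cytotoxicity and a rise apparent proliferation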
# Outline: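 Viability after 48 h compound treatment at 37C, 500-1,000 cells/well, read as ATP luminescence with CellTiter-Glo. Primary screens used 11-point (MIPE, 0.78 nM-46 µM) or 8-point (NPC, 0.59 nM-46 µM) final concentrations; follow-up screens used 11-point dilutions.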
# Potency is read from the fitted curve at half-maximal effect; tags tell the direction and shape of the fitted curve.
smiles,measurement,setting,value
CCCCCCC[N+](CC)(CC)CCCCc1ccc(Cl)cc1,Potency,[1],active: 13.3 µM
same,Potency,[2],active: 7.77 µM
same,Potency,[3],active: 11.9 µM
same,Potency,[4],"inconclusive [cytotoxic, single point]"
Oc1ccc(C(O)CNCCCCCCNCC(O)c2ccc(O)c(O)c2)cc1O (centres undefined),Potency,[5],"inconclusive [cytotoxic, single point]"
same,Potency,[2],inactive
C[C@@H]1C[C@H]2[C@@H]3CCC4=CC(=O)C=C[C@]4(C)[C@@]3(F)[C@@H](O)C[C@]2(C)[C@H]1C(=O)CO,Potency,[1],inactive
same,Potency,[3],inactive
same,Potency,[6],"inconclusive [cytotoxic, partial curve, poor fit]"
same,Potency,[7],inactive
same,Potency,[4],inactive
same,Potency,[8],inactive
Nc1nc2c(c(=O)[nH]1)N(C=O)[C@H](CNc1ccc(C(=O)N[C@@H](CCC(=O)O)C(=O)O)cc1)CN2,Potency,[1],"inconclusive [cytotoxic, partial curve, poor fit]"
same,Potency,[3],inactive
same,Potency,[7],"inconclusive [cytotoxic, single point]"
COc1ccc2c3n(c(=NC(=O)c4cccnc4)nc2c1OC)CCN3,Potency,[5],active: 14.8 µM
same,Potency,[2],inactive
same,Potency,[3],"inconclusive [cytotoxic, partial curve]"
same,Potency,[6],active: 0.968 µM
C=C1[C@H](n2cnc3c(=O)[nH]c(N)nc32)C[C@H](O)[C@H]1CO,Potency,[5],"inconclusive [cytotoxic, partial curve]"
same,Potency,[2],"inconclusive [cytotoxic, partial curve]"
same,Potency,[7],"inconclusive [cytotoxic, partial curve, poor fit]"
COc1ccc(C=Cc2cc(OC)c(OC)c(OC)c2)cc1NC(=O)[C@H](N)CO,Potency,[1],"inconclusive [cytotoxic, full curve]"
same,Potency,[2],active: 0.0086 µM
same,Potency,[7],active: 0.0066 µM
CC[N+](CC)(CCNC(=O)C(=O)NCC[N+](CC)(CC)Cc1ccccc1Cl)Cc1ccccc1Cl,Potency,[1],inactive
same,Potency,[6],inactive
same,Potency,[7],inactive
OC[C@H]1O[C@@H](O[C@H]2[C@@H](O)[C@@](O)(CO)O[C@@H]2CO)[C@H](O)[C@@H](O)[C@@H]1O,Potency,[5],inactive
same,Potency,[3],inactive
same,Potency,[6],inactive
same,Potency,[7],inactive
COc1ccc(-n2nc(C(N)=O)c3c2C(=O)N(c2ccc(N4CCCCC4=O)cc2)CC3)cc1,Potency,[5],inactive
same,Potency,[2],"inconclusive [cytotoxic, single point]"
same,Potency,[6],inactive
CN(C)C(=S)SC(=S)N(C)C,Potency,[1],active: 2.99 µM
same,Potency,[7],active: 0.944 µM
same,Potency,[4],active: 4.22 µM
same,Potency,[8],active: 1.19 µM
COc1cc(OC)cc(OC)c1,Potency,[1],inactive
same,Potency,[6],inactive
CN1CCC(Nc2ncc3ncnc(Nc4ccc(F)c(Cl)c4)c3n2)CC1,Potency,[5],"inconclusive [cytotoxic, partial curve, poor fit]"
same,Potency,[2],"inconclusive [cytotoxic, single point]"
same,Potency,[3],active: 26.6 µM
same,Potency,[6],active: 27.6 µM
same,Potency,[7],"inconclusive [cytotoxic, single point]"
same,Potency,[8],"inconclusive [cytotoxic, partial curve, poor fit]"
C[C@]12CCC(=O)C=C1CC[C@H]1[C@@H]3CC[C@](O)(C(=O)CO)[C@@]3(C)C[C@H](O)[C@@]12F,Potency,[1],inactive
same,Potency,[3],inactive
Cc1cc(SCc2sc(-c3ccc(C(F)(F)F)cc3)nc2C)ccc1OCC(=O)O,Potency,[1],"inconclusive [cytotoxic, partial curve]"
same,Potency,[2],"inconclusive [cytotoxic, partial curve, poor fit]"
same,Potency,[6],"inconclusive [cytotoxic, partial curve]"
NC[C@H](O)c1ccc(O)c(O)c1,Potency,[1],"inconclusive [cytotoxic, single point]"
same,Potency,[7],inactive
"Cc1c2oc3c(C)ccc(C(=O)N[C@@H]4C(=O)N[C@H](C(C)C)C(=O)N5CCC[C@H]5C(=O)N(C)CC(=O)N(C)[C@@H](C(C)C)C(=O)O[C@@H]4C)c3nc-2c(C(=O)N[C@@H]2C(=O)N[C@H](C(C)C)C(=O)N3CCC[C@H]3C(=O)N(C)CC(=O)N(C)[C@@H](C(C)C)C(=O)O[C@@H]2C)c(N)c1=O (I: T[dV]P[Sar][NMeV] / II: T[dV]P[Sar][NMeV]; ester I:1-I:C, II:1-II:C; linker I:N-II:N via Actinocin(9to1))",Potency,[1],inconclusive [cytotoxic]
same,Potency,[3],"inconclusive [cytotoxic, full curve]"
same,Potency,[8],"inconclusive [cytotoxic, full curve, poor fit]"
OC[C@H]1O[C@@H](n2cnc3c(=S)nc[nH]c32)[C@H](O)[C@@H]1O,Potency,[1],active: 0.75 µM
same,Potency,[6],active: 0.55 µM
